{"source": "patent US20040161477A1", "about": "“Phyllanthus-derived compounds for the prevention and/or treatment of disease associated with a retrovirus” (priority 2000, published 2004)", "key": {"HIV-1 (HX10) [1]": {"tested_on": "HIV-1 (HX10)", "assay": "microbe, parasite or virus in culture", "format": "cell-based", "settings": "Human immunodeficiency virus 1; for inhibition at 2.5 µg/mL: 2.5 μg/ml; for inhibition at 5 µg/mL: 5 μg/ml"}, "[2]": {"biological_target": "recombinant HIV-1 reverse transcriptase (RT) (Human immunodeficiency virus type 1 group M subtype B, UniProt P04585)", "assay": "Recombinant HIV-1 reverse transcriptase assay (Screen RTA, Retro-Tech)", "format": "biochemical", "settings": "10 μg/ml, 2 h incubation, from FIG. 1"}, "[3]": {"biological_target": "HIV reverse transcriptase (Human immunodeficiency virus type 1 group M subtype B, UniProt P04585)", "settings": "Liu et al., Planta Med. 65 (1999), 43-46; cited from earlier work"}, "HIV-2 strain (ROD)": {"tested_on": "HIV-2 strain (ROD)", "assay": "Infection reporter assay in MAGI cells, HIV-2 strain", "format": "cell-based", "settings": "Human immunodeficiency virus 2, wild type strain HIV-2rod"}, "HIV-1 (HX10) [4]": {"tested_on": "HIV-1 (HX10)", "format": "cell-based", "settings": "1.25 μg/ml, 7 days, ca. 100 TCID50, from FIG. 2"}, "wild type HIV-1": {"tested_on": "wild type HIV-1", "assay": "Virus-uptake (internalization) assay in MAGI cells, intracellular p24", "format": "cell-based", "settings": "10, 2.5 and 0.625 μg/ml"}, "[5]": {"biological_target": "HIV-1 gp120 binding to CD4 (Human immunodeficiency virus type 1 group M subtype B, UniProt P04578)", "assay": "biochemical"}, "[6]": {"settings": "MAGI cells, HIV-1 HX10, triplicates"}}}
{"smiles": "O=C(O[C@@H]1O[C@@H]2COC(=O)c3cc(O)c(O)c(O)c3-c3c(cc(O)c(O)c3O)C(=O)O[C@H]([C@H]1O)[C@@H]2O)c1cc(O)c(O)c(O)c1", "note": "[Corilagin, corilagin]", "values": [{"measurement": "inhibition at 2.5 µg/mL", "setting": "HIV-1 (HX10) [1]; [6]", "result": "38 ± 13", "unit": "%"}, {"measurement": "inhibition at 5 µg/mL", "setting": "HIV-1 (HX10) [1]; [6]", "result": "73 ± 9", "unit": "%"}, {"measurement": "inhibition at 10 µg/mL", "setting": "HIV-1 (HX10) [1]; 10 μg/ml, MAGI cells, HIV-1 HX10, triplicates", "result": "85 ± 7", "unit": "%"}, {"measurement": "inhibition at 10 µg/mL", "setting": "[2]", "result": "> 35", "unit": "%"}, {"measurement": "inhibitory effect on HIV reverse transcriptase", "setting": "[3]", "result": "strong inhibitory effect"}]}
{"smiles": "O=C1O[C@H]2[C@@H]3OC(=O)c4cc(O)c(O)c(O)c4-c4c(cc(O)c(O)c4O)C(=O)OC[C@H]2O[C@@H](OC(=O)c2cc(O)c(O)c(O)c2)[C@@H]3OC(=O)c2cc(O)c(O)c3c2[C@@H]2C1=CC(=O)[C@](O)(O3)C2(O)O", "note": "[Geraniin, geraniin]", "values": [{"measurement": "inhibition at 1.25 µg/mL", "setting": "HIV-1 (HX10) [1]; 1.25 μg/ml, MAGI cells, HIV-1 HX10, triplicates", "result": "66 ± 8", "unit": "%"}, {"measurement": "inhibition at 2.5 µg/mL", "setting": "HIV-1 (HX10) [1]; [6]", "result": "80 ± 4", "unit": "%"}, {"measurement": "inhibition at 5 µg/mL", "setting": "HIV-1 (HX10) [1]; [6]", "result": "93 ± 5", "unit": "%"}, {"measurement": "EC50", "setting": "HIV-1 (HX10) [1]; wild type strain HX10, MAGI cells", "result": 0.74, "unit": "µg/mL"}, {"measurement": "EC50", "setting": "HIV-2 strain (ROD)", "result": 0.83, "unit": "µg/mL"}, {"measurement": "inhibition at 10 µg/mL", "setting": "[2]", "result": "> 80", "unit": "%"}, {"measurement": "inhibition of HIV-1 replication in MT4 cells", "setting": "HIV-1 (HX10) [4]", "result": "complete inhibition"}, {"measurement": "internalization of virus (intracellular HIV-1 p24)", "setting": "wild type HIV-1", "result": "blocked by geraniin in a dose dependent manner"}, {"measurement": "IC50", "setting": "[5]", "result": 504, "unit": "nM"}, {"measurement": "inhibitory effect on HIV reverse transcriptase", "setting": "[3]", "result": "strong inhibitory effect"}]}
